First the molecules themselves.
T1: Flag-tagged Cep120 (mouse) (UniProt Q7TSG1)
T1 sequence: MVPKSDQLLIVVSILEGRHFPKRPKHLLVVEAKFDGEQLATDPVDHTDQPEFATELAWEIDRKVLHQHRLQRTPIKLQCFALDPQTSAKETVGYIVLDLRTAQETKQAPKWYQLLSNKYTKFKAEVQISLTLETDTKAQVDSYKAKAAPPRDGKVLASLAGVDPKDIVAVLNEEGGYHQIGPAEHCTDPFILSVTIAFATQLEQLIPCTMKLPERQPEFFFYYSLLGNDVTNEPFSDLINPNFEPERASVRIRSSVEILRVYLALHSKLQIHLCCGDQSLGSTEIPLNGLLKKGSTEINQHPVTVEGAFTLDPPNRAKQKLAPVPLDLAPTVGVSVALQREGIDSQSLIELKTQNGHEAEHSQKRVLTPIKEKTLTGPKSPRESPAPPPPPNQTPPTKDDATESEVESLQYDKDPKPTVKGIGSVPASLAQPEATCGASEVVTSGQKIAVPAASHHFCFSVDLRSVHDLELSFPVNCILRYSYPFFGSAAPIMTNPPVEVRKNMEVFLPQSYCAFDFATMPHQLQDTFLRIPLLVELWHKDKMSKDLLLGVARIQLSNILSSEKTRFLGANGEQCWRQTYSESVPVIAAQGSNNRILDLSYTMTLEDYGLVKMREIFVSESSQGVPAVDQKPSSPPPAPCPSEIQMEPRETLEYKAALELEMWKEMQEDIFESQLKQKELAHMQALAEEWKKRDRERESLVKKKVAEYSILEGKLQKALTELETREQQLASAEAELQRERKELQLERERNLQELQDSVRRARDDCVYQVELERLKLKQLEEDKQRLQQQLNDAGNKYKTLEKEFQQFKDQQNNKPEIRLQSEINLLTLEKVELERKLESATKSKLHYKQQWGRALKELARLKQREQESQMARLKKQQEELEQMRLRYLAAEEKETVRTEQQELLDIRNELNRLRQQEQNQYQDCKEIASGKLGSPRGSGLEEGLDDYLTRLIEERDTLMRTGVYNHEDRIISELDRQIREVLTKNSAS

B1: Ta3 639-E aa fragment (domain or fragment, UniProt E9PV87 639-1520)
chain: LQDEDYMLQIYGKPVYQGHRSTLKKGPYLRFSSPSPKAKPQRPRVIELVKGTKVKSAKTQTDFHAASRMKMDSKIQHPITALPHADQQYMVSPSREMPTVSGTLEGHLIPMAILLGQTQSNSDSMPPAGVTVNKPRPVTVTTSIPPASRKGNAGVKKPNVAIVEMKSEKKDPPQLSVQILPSVDIDSVSYSSTDGASSPPSPKEASLPPLHTWIQTPDFMKVDEEEVPLPGTNFDEVIDVIQEEEKRDEIPECSAPMLEFNRSVKVVPTKYNGPSFPPVVSAYHPTTDILDKVIERKETLENSLIQWVEQEIMSRIISGLFPLQQQARLDASVSVSEASEPSASDIVAGTSSGALQRMVDARVPVNSDMVSHFVNEALTETIAVMLADREAERQRAAATSVPGDLSGTETNLLARVCAPVATPQPTPPCSPSPVREHVRVKTPDSSPCESDPDAASSIKEIRVEKGSDMPAVMLVSTPTRTPVATPPPAAALTPTLSETSIDKLKLSSPELPKPWDSGDLPLDEENPNSLQELPHPRAVVMSVANEEPESVDFSAQPAPPEPAPSAPLPEGTKAPSLQRVPSSGSSTLENTLSTVTETETLDRHISEGEILFSCGQNLATKRPGDLFLMNINDSLSSTLQDALEMEDDPPSEGQVIRRPHKKRHEDAIVALLTKQQRELLVSQQEEDLDNSVGELSEGQRLVLKAAEDISAGPSGQMLPPTSPAEPSYQHADPRLVLQQSDMASGNICEDLCASHGPMSLRELELQPDSNLILPITHTTTAVSDGNLPEAAEDFSQYQQKQDSDIKQVEHKPIQRHLTSVRNKPDSTLSQHQGGPADLLLIAHVSPARMSVTLPSANLEDCSQSLSTSSMHGGTESSGTDTF
B2: Ta3 1-639 aa fragment (domain or fragment, UniProt E9PV87 1-639)
chain: MKNVEFSLERGQRLKMPARKLREIVSPNQGNKLAVVEDELPRVPPALAANKRLAVETRTSSNGTLCGSLDLTSARLYHQPLLESPPASKKSDFSKDAVVRQLPLNKTEENNAPKANDIFISQYTMGQKDALRTVLKQKAQSMPVFKAVKVHLFEDTSTEKNTVAQETETPPNRIDSATTVAAATAAAIATAAPLIKVQSDLEAKVNCVGELLTKLQETDKQLQRVTEHQASVQSKQEKVHCHDHDKQMNAFMEQHIRHLEKLQQQQIDIQTHFIDAALKASSLQLGMSTSRAVGKYSGKLGSPSVGSSVFSHNTFVSKRVPLSEDTDFDGQKSPLETPAPRRFAPVPVSRDGKITKRESPTEEKENMEMNSPKGNVRLLEQVLNSNECLTRKTESSDITSLTQPKMGWNLEKRDSTETLHSQIFPSSEERGTAQVPVPKYNDVVHDLGQKKQASDMLQIKQSPVTLRLSDHPHNPALLQTTNTRSVLKDAAKILRGVQNNKKVLEENLEAIVRAKDGAAMYSFINALATNREMSEKIRIRKQVDEWIKIISAEIQDELMRKDYEQKRFDPKNQRNKKALTMSRDIKANNQEKTVNRSVIPRSHYQKQTQEQFTSPPVRNLPASGPQKERSGLLKSATTL
B3: Ta3 1-470 aa fragment (domain or fragment, UniProt E9PV87 1-470)
chain: MKNVEFSLERGQRLKMPARKLREIVSPNQGNKLAVVEDELPRVPPALAANKRLAVETRTSSNGTLCGSLDLTSARLYHQPLLESPPASKKSDFSKDAVVRQLPLNKTEENNAPKANDIFISQYTMGQKDALRTVLKQKAQSMPVFKAVKVHLFEDTSTEKNTVAQETETPPNRIDSATTVAAATAAAIATAAPLIKVQSDLEAKVNCVGELLTKLQETDKQLQRVTEHQASVQSKQEKVHCHDHDKQMNAFMEQHIRHLEKLQQQQIDIQTHFIDAALKASSLQLGMSTSRAVGKYSGKLGSPSVGSSVFSHNTFVSKRVPLSEDTDFDGQKSPLETPAPRRFAPVPVSRDGKITKRESPTEEKENMEMNSPKGNVRLLEQVLNSNECLTRKTESSDITSLTQPKMGWNLEKRDSTETLHSQIFPSSEERGTAQVPVPKYNDVVHDLGQKKQASDMLQIKQSPVTLRLSD
B4: Ta3 471-E aa fragment (domain or fragment, UniProt E9PV87 471-1520)
chain: HPHNPALLQTTNTRSVLKDAAKILRGVQNNKKVLEENLEAIVRAKDGAAMYSFINALATNREMSEKIRIRKQVDEWIKIISAEIQDELMRKDYEQKRFDPKNQRNKKALTMSRDIKANNQEKTVNRSVIPRSHYQKQTQEQFTSPPVRNLPASGPQKERSGLLKSATTLQDEDYMLQIYGKPVYQGHRSTLKKGPYLRFSSPSPKAKPQRPRVIELVKGTKVKSAKTQTDFHAASRMKMDSKIQHPITALPHADQQYMVSPSREMPTVSGTLEGHLIPMAILLGQTQSNSDSMPPAGVTVNKPRPVTVTTSIPPASRKGNAGVKKPNVAIVEMKSEKKDPPQLSVQILPSVDIDSVSYSSTDGASSPPSPKEASLPPLHTWIQTPDFMKVDEEEVPLPGTNFDEVIDVIQEEEKRDEIPECSAPMLEFNRSVKVVPTKYNGPSFPPVVSAYHPTTDILDKVIERKETLENSLIQWVEQEIMSRIISGLFPLQQQARLDASVSVSEASEPSASDIVAGTSSGALQRMVDARVPVNSDMVSHFVNEALTETIAVMLADREAERQRAAATSVPGDLSGTETNLLARVCAPVATPQPTPPCSPSPVREHVRVKTPDSSPCESDPDAASSIKEIRVEKGSDMPAVMLVSTPTRTPVATPPPAAALTPTLSETSIDKLKLSSPELPKPWDSGDLPLDEENPNSLQELPHPRAVVMSVANEEPESVDFSAQPAPPEPAPSAPLPEGTKAPSLQRVPSSGSSTLENTLSTVTETETLDRHISEGEILFSCGQNLATKRPGDLFLMNINDSLSSTLQDALEMEDDPPSEGQVIRRPHKKRHEDAIVALLTKQQRELLVSQQEEDLDNSVGELSEGQRLVLKAAEDISAGPSGQMLPPTSPAEPSYQHADPRLVLQQSDMASGNICEDLCASHGPMSLRELELQPDSNLILPITHTTTAVSDGNLPEAAEDFSQYQQKQDSDIKQVEHKPIQRHLTSVRNKPDSTLSQHQGGPADLLLIAHVSPARMSVTLPSANLEDCSQSLSTSSMHGGTESSGTDTF

Results are given in words; binding and its absence hold for the method and conditions named. Binding seen in cells or lysates may run through a third protein. Some entries that bind do so weakly or less than the wild type. Where a sequence is shown, tags or fusion partners need not be part of it.

The target of this assay is T1, Flag-tagged Cep120 (mouse). In words: co-IP; FLAG-Cep120 coexpressed with Ta3 or Ta3 truncations in HEK293 cells; lysates immunoprecipitated and immunoblotted with the indicated antibodies. (In general: A western blot detects proteins with antibodies after separation by electrophoresis.)
On to “Talpid3 (Ta3), full length (from UniProt E9PV87 1-1520)”, for which the binding result is reported as “binds”.
Turning to B1, the binding entry is “no binding”.
With B2, the binding result was “binds”.
Next, B3: “no binding”; B4: “binds”.
